# Source: article PMC12136788
# The list shows a part of the results.
# B1: chr13:77097425:77097526:-|CDS|ENSG00000005810|msi1|FALSE|unique (ssRNA)
# RNA: GGGAGUUCUACAGUCCGACGAUCAGAAAAGGCAGAAGUUAGGCCCAGGGGUAAUUUGUUUGGAGAGAUGGCCCAGCUGGCAGUAGGAGGACCAGAGAAAGAUACCAUCUGUGAACUGUGUGGGGAGUCACAUCCAUACCCGGUCAACAGAGGAUUGAGCAUCA
# B2: chr13:20975083:20975184:-|CDS|ENSG00000150457|msi1|total|mutant (ssRNA)
# RNA: GGGAGUUCUACAGUCCGACGAUCGCCAGCCCCCUACGUUCCCACCAUCAGCCACCCCAUGGACACCUCGAAUUUCGACCCCGCCGAUGAAGAAAGCCCUUGGAACGAUGCCAGCGAAGGCCGCACCAAGGCCUGGGACACACUCAACAGAGGAUUGAGCAUCA
# B3: chr6:57184343:57184440:+|3pUTR|ENSG00000112208|msi1_unk|FALSE|overlapping (ssRNA)
# RNA: GGGAGUUCUACAGUCCGACGAUCUCUUCAGUUUUGUGAAUAACAAAACUAGCAAUAUUUUAAUUAUCUAUCUAGAGAUUUUUUAGAUUGAAUUCUUGUCUUGUACUAGGAUCUAGCAUAUUUCACUAUUCUGUGGAUGAAUACCAACAGAGGAUUGAGCAUCA
# B4: chrX:53532849:53532950:-|3pUTR|ENSG00000086758|unk|total|mutant (ssRNA)
# RNA: GGGAGUUCUACAGUCCGACGAUCGUGCUCCUCAGAUUCUGUGUUCAGAAGGAUUUGCUGCAUUGAGACUUGAAACCUUUGGACCGGGGAAAAAAUUAUAUAUAUAUAUAUUUUUUUGUUCUGUUUGCAUUUCUUAAUUUGUGCCAACAGAGGAUUGAGCAUCA
# B5: chr8:17644361:17644462:-|3pUTR|ENSG00000129422|msi1|total|mutant (ssRNA)
# RNA: GGGAGUUCUACAGUCCGACGAUCCAACAUUGUGAUGUCAGUAUUUACUAAUCUACAUUCAGUGGCUGUACAAAUAACAGCUGCCGUAAGAAGAGAUUCAGGAUGCCCGAGGUGAAUAUUUGGGUCAUUUACAUGUACACUACACAACAGAGGAUUGAGCAUCA
# B6: chr12:10908389:10909298:-|CDS|ENSG00000212128|control|control|control (ssRNA)
# RNA: GGGAGUUCUACAGUCCGACGAUCCAUGCUUUGUGAGACGAUUGGAGUCUUCUCUCCUUCAAGCCACUCCUUUCUUCUGAUUCUAGGAAACGCUAAGUUAAGACAGGCCUUUCUUUUGGUGGCAGCUAAGGUAUGGGCUAAACGCAACAGAGGAUUGAGCAUCA
# B7: chr7:101206146:101206247:-|3pUTR|ENSG00000106397|msi1|total|mutant (ssRNA)
# RNA: GGGAGUUCUACAGUCCGACGAUCCUUUGUCGACCCCUGACACUCAACCACUCUGCCAAACCUGCCCUGCCAUUGUGCCUUUUCCGGGGGCCUGGCCCCCGUCCUGGGAGUUGGGGGAUGGGUCUCUCUGUCUCCCCACUUCCUCAACAGAGGAUUGAGCAUCA
# B8: chr14:100883974:100884119:-|CDS|ENSG00000254656|unk|FALSE|unique (ssRNA)
# RNA: GGGAGUUCUACAGUCCGACGAUCGUUCUAUAACGACCGUCUGAGAGUUGGCUAUGUCAUCAAUCACCUGUCCGGCUUGGCAUUAGAAUGGGCCAAAGCUCUACUGCAGGAAAACAGCCCCCUGAUCGGAGACUUCCCAGCCUUCAACAGAGGAUUGAGCAUCA
# B9: chr1:37566712:37566813:+|3pUTR|ENSG00000163879|unk|FALSE|unique (ssRNA)
# RNA: GGGAGUUCUACAGUCCGACGAUCGCUUUAUUUCCCUAGCACUGGUGAAGGGCUUCAACUGUCAAACCUCAGAACAAAUGCAUUAGGGCCUUAGAAAUGUCAAUGGGGCAGGAAGAAAACACAAUUUCUAACUGCCUGUUUUUGCAACAGAGGAUUGAGCAUCA
# B10: chr14:53043751:53043854:-|3pUTR|ENSG00000100523|unk|FALSE|unique (ssRNA)
# RNA: GGGAGUUCUACAGUCCGACGAUCACUUAGAUUAAAUCUUGCUUUAUUUUUACUUUAAAAUUAGUCUUGCUAAGGCCUUAUGUUAGUUCAUACUUUCUUUUCAACAGUAAUCUUGUUUAUAAUCCAGUGUUUCUGUGUUUUAGGCAACAGAGGAUUGAGCAUCA
# B11: ENSG00000151025:stop:overlap|stop_codon|ENSG00000151025|stop_codon|NA|stop_codon (ssRNA)
# RNA: GGGAGUUCUACAGUCCGACGAUCUAAGUGCAAAUAAGAUAGCAGGGCCUAGGAAAGAAGAGAUCUGGGAUAGUUUUAAAGUGUAGCAUCUCCAGGAAGAAGAGGAAAAGGAGGGAACCCCGGAUUGGAUAUGAGACAGAAGAUCAACAGAGGAUUGAGCAUCA
# B12: chr11:56417260:56418232:-|CDS|ENSG00000279961|control|control|control (ssRNA)
# RNA: GGGAGUUCUACAGUCCGACGAUCGACAAGAUGGCUUCUGUAUUUUACACAGUGGUGAUCCCCAUGUUAAACCCCCUAAUCUAUAGUCUAAGGAACAAAGAAGUGAAAGAUGCCUCAAAGAAAGCCUUGGAUAAAGGUUGUGAACAACAGAGGAUUGAGCAUCA
# B13: chr17:61865808:61865921:-|3pUTR|ENSG00000108506|unk|total|mutant (ssRNA)
# RNA: GGGAGUUCUACAGUCCGACGAUCUUCUAUGAGAAUGAGUUUGCCGCUGUUUCAAAUCAUGAAGUGCACCGUAUCACAUGUGACCGAAUAUUUAUAACUUUUUAUCCGAUGCUUAAUGUUCAAUUAAGUAAUUUUGAUGUGAAACAACAGAGGAUUGAGCAUCA
# B14: ENSG00000136451:be:win_601|CDS|ENSG00000136451|bound_else_gene|NA|bound_elsewhere_windowed (ssRNA)
# RNA: GGGAGUUCUACAGUCCGACGAUCCCCUUUGAGUGUCCUAUUUGUAAUCAGCGCUUCAAGAGGAAGGACCGGAUGACUUACCAUGUGAGGUCUCAUGAAGGAGGCAUCACCAAACCCUAUACUUGCAGUGUUUGUGGGAAAGGCCAACAGAGGAUUGAGCAUCA
# B15: chr1:203340627:203342342:-|three_prime_utr|ENSG00000122176|control|control|control (ssRNA)
# RNA: GGGAGUUCUACAGUCCGACGAUCUGGCUUUUGCUGGAAGGUCCAGGAUGGACCAUGUGACAGAAGUCCACGGGCACCCUCUGUAGUCUUCUUUCCUGUAGGUGGGGUUAGGGGGGGCGAUCAGGGACAGGCAGCCUUCUGCUGCAACAGAGGAUUGAGCAUCA
# B16: ENSG00000107863:be:win_1651|CDS|ENSG00000107863|bound_else_gene|NA|bound_elsewhere_windowed (ssRNA)
# RNA: GGGAGUUCUACAGUCCGACGAUCAAAUCUUUUCGAGGUUCCAAUUUUACUGUGGCUCCAAGCGUUGUUAAUUCUGAUAACAGGCGAAUGAGUGGUAGAGGAGUGGGAUCUGUGUCGCAGUUUAAAAAAAUUCCACCAGAUCUACAACAGAGGAUUGAGCAUCA
# B17: chr19:9526975:9527076:-|3pUTR|ENSG00000130818|unk|FALSE|unique (ssRNA)
# RNA: GGGAGUUCUACAGUCCGACGAUCCCUCUCAGACCUUCCAUCAUUACUAUAUUUCACUUUUAUGCCUAUAAACACACACAAAUUAGCAUAUGUAAUCUAAUACAUUGUAGCUAUUUUUCAGAAGUUAUCAGAUCAAUUAAGUAUCAACAGAGGAUUGAGCAUCA
# B18: chr10:27397735:27399240:-|CDS|ENSG00000182077|control|control|control (ssRNA)
# RNA: GGGAGUUCUACAGUCCGACGAUCUCUUCUAGGCUACCCAGUGUUACAAAGUGCAAUUUCAACAAUAAUAGGGGUGUGUGUUUUAGCUGCAGCGAAAGCAUACAUCUUCAGAACAUUUUUUAAGAUUAUGUUUCUUGUUAUGAUCAACAGAGGAUUGAGCAUCA
# B19: chr19:14119889:14120036:-|3pUTR|ENSG00000105011|msi1|FALSE|unique (ssRNA)
# RNA: GGGAGUUCUACAGUCCGACGAUCAGCAGACCCACUCCAGCUUUCUGGUGUCACAGGCGGGAAUGUUAGUUAGUAGGUAGACUUAGAUCCCAUUUCUGUCCUGCUCCCAGGAAGAUUCUUAGGUCCUCUUCAAUCCAGCAGCCCCAACAGAGGAUUGAGCAUCA
# B20: chr14:81473690:81473791:-|3pUTR|ENSG00000071537|msi1|FALSE|unique (ssRNA)
# RNA: GGGAGUUCUACAGUCCGACGAUCCAGUGUUUUGGAAGUAUGCAUGCAGGCCUAUAAAUGAAAAACACAAUUCUUUAUGUGUAUAGCAUGUGUAUUAAUGUCUAACUACAUACGCAAAAACUUCCUUUACAGAGGUUCGGACUACAACAGAGGAUUGAGCAUCA
# B21: chr15:39595431:39595532:+|3pUTR|ENSG00000137801|msi1_unk|FALSE|overlapping (ssRNA)
# RNA: GGGAGUUCUACAGUCCGACGAUCCCCCAGGAUCACUUCUCCUUGGCUUCCUUCUUUUCUGUGCUUGCAUCAGUGUGGACUCCUAGAACGUGCGACCUGCCUCAAGAAAAUGCAGUUUUCAAAAACAGACUCAGCAUUCAGCCUCAACAGAGGAUUGAGCAUCA
# B22: chr16:70572763:70572864:+|3pUTR|ENSG00000189091|msi1|FALSE|bound_elsewhere (ssRNA)
# RNA: GGGAGUUCUACAGUCCGACGAUCUCUGCAGCACCCAUCUCAGGUGGGUUCCAGAGGGCCUUUAGGGUAUAAUGAGAGCCUGUUAGGUGGAAGAGGCCCAGUUCCAGAAAUGUUCCAGCCCACCCCUGAGAAUUCCUCCUGUUUCAACAGAGGAUUGAGCAUCA
# Target: MSI1 full-length (mouse, UniProt Q61474 1-362)
# Experiment: nsRBNS (natural sequence RNA bind-n-seq); RBNS binding buffer (assumed for nsRBNS): 25 mM Tris pH 7.5, 150 mM KCl, 3 mM MgCl2, 0.01% Triton X-100, 500 ug/ml BSA, 20 U/ml SUPERase-In, 4 C; UNK is unkempt and MSI1 is Musashi-1; names of the RNAs are library labels; protein concentration not given here; high values mean tight binding
# Chain of UniProt Q61474 (Q61474 whole entry): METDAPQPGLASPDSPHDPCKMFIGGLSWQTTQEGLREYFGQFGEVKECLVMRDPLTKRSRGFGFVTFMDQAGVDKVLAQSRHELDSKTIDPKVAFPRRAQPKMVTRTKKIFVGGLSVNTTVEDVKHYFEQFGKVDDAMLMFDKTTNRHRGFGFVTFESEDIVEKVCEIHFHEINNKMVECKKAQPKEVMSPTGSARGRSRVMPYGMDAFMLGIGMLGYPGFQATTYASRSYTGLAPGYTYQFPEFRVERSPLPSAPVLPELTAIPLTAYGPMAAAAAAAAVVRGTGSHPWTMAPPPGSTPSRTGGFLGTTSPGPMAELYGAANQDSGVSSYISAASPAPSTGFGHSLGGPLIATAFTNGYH
row,Binder,binding signal [enrichment R]
1,B1,1.15
2,B2,0.769
3,B3,4.43
4,B4,0.425
5,B5,0.21
6,B6,0.436
7,B7,0.469
8,B8,0.365
9,B9,0.39
10,B10,14.6
11,B11,0.432
12,B12,1.38
13,B13,0.327
14,B14,0.385
15,B15,0.733
16,B16,0.432
17,B17,14.2
18,B18,0.321
19,B19,38.2
20,B20,0.467
21,B21,0.487
22,B22,0.474
